In PMC12339391:
Changes are numbered by the printed parent chain. No constants are given. Whether binding was seen depends on the method and setting. For some of these results: Binding seen in cells or lysates may run through a third protein. Some results given as binding are weak or reduced against the parent protein; the word gives no strength. For some of these results: Where a sequence is shown, tags or fusion partners need not be part of it. Values belong to the substance of their own block, whether it stands above or below them.

Sequences of proteins named here, by UniProt entry; tags and fusion partners are left off. A change or cut given only in a name is not applied to a line headed by its entry. A line that says so, or that is headed by a name, gives the form on record, which may keep a tag or linker. Residues count along the entry.
UniProt Q5I0X4: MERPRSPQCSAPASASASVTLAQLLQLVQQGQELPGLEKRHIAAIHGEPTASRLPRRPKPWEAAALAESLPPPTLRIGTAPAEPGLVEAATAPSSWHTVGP
HsPEX39(ΔN,4A) (residues 48–101 with the KPWE motif changed to AAAA) (Q5I0X4, form named): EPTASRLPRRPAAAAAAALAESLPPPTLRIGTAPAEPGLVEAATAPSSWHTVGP
HsPEX39(4A) (recombinant HsPEX39 with the KPWE motif changed to AAAA) (Q5I0X4, form named): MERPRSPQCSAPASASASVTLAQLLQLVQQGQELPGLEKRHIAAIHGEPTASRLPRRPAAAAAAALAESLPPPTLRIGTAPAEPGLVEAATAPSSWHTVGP
UniProt Q92968: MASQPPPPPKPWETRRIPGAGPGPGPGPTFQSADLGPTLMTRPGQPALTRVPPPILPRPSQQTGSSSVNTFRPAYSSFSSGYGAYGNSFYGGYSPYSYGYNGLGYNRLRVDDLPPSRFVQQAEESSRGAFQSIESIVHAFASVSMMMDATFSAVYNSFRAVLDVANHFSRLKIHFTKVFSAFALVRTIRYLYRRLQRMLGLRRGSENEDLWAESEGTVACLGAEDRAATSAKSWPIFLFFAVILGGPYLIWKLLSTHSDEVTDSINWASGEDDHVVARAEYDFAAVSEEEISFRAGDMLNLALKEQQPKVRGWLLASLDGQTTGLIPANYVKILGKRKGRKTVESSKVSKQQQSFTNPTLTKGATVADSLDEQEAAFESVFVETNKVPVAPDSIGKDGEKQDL
NtPEX13(4A) (NtPEX13 with a KPWE-to-AAAA substitution) (Q92968, form named): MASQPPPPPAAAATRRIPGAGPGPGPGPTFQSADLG

Legend:
[1] = biological target: T1, [^35S]H6PEX7 (radiolabelled, N-terminally His-tagged human PEX7) (human) (UniProt O00628); test: native gel or EMSA; [35S]His-PEX7 (0.4 μl reticulocyte lysate) pre-incubated with ONE recombinant protein (HsPEX39 variant 4 μg, His-PEX5(1–324) 1 μg, His-PHYH 100 ng or NtPEX13 variant 4 μg) in 20 μl 20 mM Tris-HCl pH 8.0, 5 mM DTT, 0.025% BSA; non-denaturing 8% gel, 4 °C; autoradiography; only the binder purified
T1 sequence (chain, [35S]methionine): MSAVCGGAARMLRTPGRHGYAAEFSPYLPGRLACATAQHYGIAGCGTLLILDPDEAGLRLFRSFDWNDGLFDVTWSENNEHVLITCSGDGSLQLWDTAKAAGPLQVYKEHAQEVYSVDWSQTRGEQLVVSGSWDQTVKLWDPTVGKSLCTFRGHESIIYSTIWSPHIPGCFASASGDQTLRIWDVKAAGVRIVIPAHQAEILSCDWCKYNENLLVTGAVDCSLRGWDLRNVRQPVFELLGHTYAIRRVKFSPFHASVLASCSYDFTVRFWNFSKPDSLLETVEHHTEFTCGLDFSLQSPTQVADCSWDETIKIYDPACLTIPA

[2] = biological target: T2, PEX7(E77A)-FLAG-HA (human) (UniProt O00628); test: co-IP; anti-FLAG M2 magnetic beads; lysates of HCT116 or HEK293T cells stably expressing the FLAG-HA-tagged bait; 50 mM Tris-HCl pH 7.5, 150 mM NaCl, 0.5% NP-40 alternative, 1 mM DTT, 4 h at 4 °C; washes with 400 mM NaCl; immunoblot of endogenous prey
T2 sequence: T1 sequence (chain, [35S]methionine) with E77A

[3] = biological target: HsPEX39-FLAG-HA (C-terminally FLAG-HA-tagged human PEX39) (human) (UniProt Q5I0X4); test: as above
[4] = biological target: T3, PEX7-FLAG-HA (C-terminally FLAG-HA-tagged human PEX7) (human) (UniProt O00628); test: as above
T3 sequence: T1 sequence (chain, [35S]methionine)

[5] = biological target: T1, [^35S]H6PEX7 (radiolabelled, N-terminally His-tagged human PEX7) (human); test: native gel or EMSA; apparent K_d: [35S]H6PEX7 (reticulocyte lysate) with increasing amounts of recombinant HsPEX39 (no GST tag) in the presence of H6PHYH; native PAGE and autoradiography; only the binder purified
[6] = biological target: T1, [^35S]H6PEX7 (radiolabelled, N-terminally His-tagged human PEX7) (human); test: native gel or EMSA; apparent K_d: [35S]H6PEX7 (reticulocyte lysate) with increasing amounts of recombinant HsPEX39 (no GST tag) or NtPEX13, no other protein added; native PAGE and autoradiography; only the binder purified
[7] = biological target: T4, [^35S]H6PEX7(E77A) (human) (UniProt O00628); test: native gel or EMSA; [35S]His-PEX7 (0.4 μl reticulocyte lysate) pre-incubated with ONE recombinant protein (HsPEX39 variant 4 μg, His-PEX5(1–324) 1 μg, His-PHYH 100 ng or NtPEX13 variant 4 μg) in 20 μl 20 mM Tris-HCl pH 8.0, 5 mM DTT, 0.025% BSA; non-denaturing 8% gel, 4 °C; autoradiography; only the binder purified
T4 sequence (chain, [35S]methionine): T1 sequence (chain, [35S]methionine) with E77A

[8] = biological target: T1, [^35S]H6PEX7 (radiolabelled, N-terminally His-tagged human PEX7) (human); test: native gel or EMSA; chase: preformed [35S]His-PEX7 complexes (5 μM NtPEX13 chased with 25 μM GST-HsPEX39; 50 nM GST-HsPEX39 chased with 5 μM GST-HsPEX39(48–101)); 20 min, aliquots at time points; control GST-Ub; autoradiography; only the binder purified
[9] = biological target: T1, [^35S]H6PEX7 (radiolabelled, N-terminally His-tagged human PEX7) (human); test: native gel or EMSA; chase: preformed [35S]H6PEX7–H6PHYH–GST-HsPEX39 complex chased with a 100-fold molar excess of GST-HsPEX39(ΔN); aliquots at time points; control GST-Ub; autoradiography; only the binder purified

binding [1]: no binding (tested: 4 μg in 20 μl)
Substance: NtPEX13(4A) (NtPEX13 with a KPWE-to-AAAA substitution) (from UniProt Q92968 1-36) (domain or fragment)

binding [1]: no binding (tested: 4 μg in 20 μl)
Substance: HsPEX39(4A) (recombinant HsPEX39 with the KPWE motif changed to AAAA) (from UniProt Q5I0X4 1-101)

binding [9]: binds | binding [7]: no binding (tested: 4 μg in 20 μl) | binding [1]: binds | binding [8]: binds
Substance: GST-HsPEX39 (N-terminally GST-tagged human PEX39, C6ORF226) (from UniProt Q5I0X4 1-101)

More lines, now with the values behind:

Substance: HsPEX39(ΔN,4A) (residues 48–101 with the KPWE motif changed to AAAA) (from UniProt Q5I0X4 48-101) (domain or fragment)
binding [1]: no binding (tested: 4 μg in 20 μl)

Substance: endogenous HsPEX13 (from UniProt Q92968 1-403)
binding [2]: no binding | binding [3]: no binding | binding [4]: binds

Substance: recombinant HsPEX39 lacking the GST tag (from UniProt Q5I0X4 1-101)
binding [5]: binds | binding [6]: binds

Substance: NtPEX13 (HsPEX13 residues 1–36 fused to Sumo1 with a hexa-histidine tag) (from UniProt Q92968 1-36) (domain or fragment)
binding [7]: no binding (tested: 4 μg in 20 μl) | binding [1]: binds | binding [6]: binds | binding [8]: binds

Substance: endogenous HsPEX39 (C6ORF226) (from UniProt Q5I0X4 1-101)
binding [2]: no binding | binding [4]: binds

Substance: HsPEX39(ΔN) (N-terminally truncated HsPEX39, residues 48–101) (from UniProt Q5I0X4 48-101) (domain or fragment)
binding [1]: binds
